# Test results from PubChem BioAssay AID686979 (National Center for Advancing Translational Sciences (NCATS), 2013).
# The campaign covered roughly 420,000 compounds. About 50,000 (12%) were called active. Inconclusive results, whose numbers are uncertain, are shown with a selection of clear calls. Calls follow the shape of the dose curve; as a rule, active = well fitted inhibition curve with a large enough effect; inconclusive = small, poorly fitted or top-dose-only effect; inactive = flat fitted curve, though single readings scatter. No potency is given beside an inconclusive call; the fits are too rough.
# Experiment: qHTS for Inhibitors of human tyrosyl-DNA phosphodiesterase 1 (TDP1): qHTS in cells in presence of CPT; also: nearly all actives have a fitted effect of over 55% in size
# Settings: chicken DT40 Tdp1-/-;hTDP1 cells + 20 nM CPT, ATP luminescence, 48 h; activity change, negative = growth inhibition: at 46.2 µM (top of the series) unless noted
# Summary of the method: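 Chicken DT40 Tdp1-/- cells stably complemented with human TDP1 were seeded at 400 cells/well in medium containing 20 nM camptothecin, exposed to pin-transferred compounds, and grown at 37 °C for at least 48 hr. Viability was read as ATP luminescence.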
# % is scaled to controls: 0 for no effect and ±100 for the full control effect; potency is read from the fitted curve at half-maximal effect; tags tell the direction and shape of the fitted curve.
Compound,Potency,"activity change, negative = growth inhibition"
CC(Sc1nc(N2CCOCC2)nc(N2CCOCC2)n1)C(=O)Nc1ccccc1 (configuration not stated),"inconclusive [inhibitor, single point]",
COC(=O)c1cnc(Nc2nc(C(N)COCc3ccccc3)cs2)nc1C(F)(F)F (configuration not stated),"inconclusive [inhibitor, single point]",
COc1cc(NC(=S)N2CCN(C/C=C/c3ccccc3)CC2)cc(OC)c1,inactive,
CCn1c(CC(=O)Nc2ccccc2)nnc1SCC(=O)NC1=NCCS1,"inconclusive [inhibitor, single point]",
Cc1nn(C)c(C)c1NS(=O)(=O)c1ccc(N2CCCC2=O)cc1,active: 18.4 µM,
Cc1ccc2c(c1)N(CC(=O)N(Cc1ccc3c(c1)OCO3)CC1CCCO1)C(=O)C(C)O2 (configuration not stated),"inconclusive [inhibitor, single point]",
COc1ccc2oc(C(=O)OCC(=O)N3CCC(C)CC3)c(C)c2c1,"inconclusive [inhibitor, partial curve]",
Cc1c(C(O)CN2CCN(Cc3ccc4c(c3)OCO4)CC2)c2ccccc2n1C (configuration not stated),"inconclusive [inhibitor, single point]",
CCN(C[C@H]1N[C@@](CC)(C(=O)OC)[C@H]2C(=O)N(C)C(=O)[C@@H]12)S(=O)(=O)c1ccc(C)cc1,inactive,
CC(C(=O)NCC(=O)Nc1ccc(F)c(F)c1F)N1CCN(c2ccc(O)cc2)CC1 (configuration not stated),"inconclusive [inhibitor, single point]",
O=C(C1CCN(c2nnc(-n3cccc3)s2)CC1)N1CCN(Cc2ccc3c(c2)OCO3)CC1,"inconclusive [inhibitor, single point]",
C=CCNc1ncnc2c1[nH]c1ccc(Cl)cc12,"inconclusive [inhibitor, single point]",
COc1cccc(CNC(=O)Cn2c(=O)n3nc(-c4cccc(C)c4)nc3c3ccccc32)c1,active: 16.4 µM,
COc1cc2c(cc1OC)CN(C(=O)c1nn(Cc3ccccc3)c(=O)c3ccccc13)CC2,"inconclusive [inhibitor, single point]",
O=S(=O)(c1ccc2ccccc2c1)N1CCN(c2ccc(O)cc2)CC1,active: 6.51 µM,
COc1ccc(F)cc1S(=O)(=O)N1CCCN(S(=O)(=O)c2cc(F)ccc2OC)CC1,"inconclusive [inhibitor, single point]",
O=C(O)CC/C(=N/NC(=O)c1cn(-c2ccccc2)nc1-c1ccccc1)C(=O)O,"inconclusive [inhibitor, single point]",
CCc1nn(CC(=O)N2CCCCCC2)c(=O)c2cc3ccccc3n12,"inconclusive [inhibitor, single point]",
COc1ccccc1-c1ccc2c(c1)C(C)(Cc1cccc(F)c1)C(=O)N2 (configuration not stated),"inconclusive [inhibitor, single point]",
CC(OC(=O)CCc1ccccc1)C(=O)Nc1ncc(Cl)cc1Cl (configuration not stated),inactive,
CS(=O)(=O)n1nc(OC(=O)c2cccs2)cc1N,"inconclusive [inhibitor, single point]",
CSc1ccc(S(=O)(=O)Nc2ccc3c(c2)OCCO3)cc1,"inconclusive [inhibitor, partial curve]",
S=c1cn[nH]c2ccccc12,inactive,

Compound,Potency,"activity change, negative = growth inhibition"
CC(OC(=O)/C=C/c1ccco1)C(=O)Nc1cccc([N+](=O)[O-])c1 (configuration not stated),active: 18.4 µM,
N#Cc1c(-c2ccco2)cc(-c2cccnc2)nc1N,"inconclusive [inhibitor, single point]",
COc1ccc(Nc2ncnc3onc(C)c23)cc1Cl,inactive,
CCCSCCCNC(=O)C1CCCN(C(=O)c2cnn(-c3ccccc3)c2-n2cccc2)C1 (configuration not stated),"inconclusive [inhibitor, single point]",
COc1ccc(C(C)=O)cc1CC1(C)C(=O)Nc2ccc(-c3cccc(C(F)(F)F)c3)cc21 (configuration not stated),"inconclusive [inhibitor, single point]",
Nc1cccc(-c2cn(-c3cc4cc(C#CC5(O)CCCCC5)ccc4oc3=O)nn2)c1,"inconclusive [inhibitor, single point]",
Cc1ccc(OCC(=O)Nc2cccc(S(=O)(=O)N3CCCCC3)c2)c([N+](=O)[O-])n1,"inconclusive [inhibitor, single point]",
O=C(Cn1nc(Cc2cccnc2)c2ccccc2c1=O)N1CCN(c2ccc(F)cc2)CC1,"inconclusive [inhibitor, single point]",
Clc1ccc(C2=Nn3c(nnc3-c3n[nH]c4c3CCC4)SC2)cc1,active: 4.11 µM,
Cc1nonc1-c1csc(N)n1,inactive,
O=C(C1=C[C@@H](c2csc3ccccc23)C[C@@H](OCc2ccc(CO)cc2)O1)N1CCN(Cc2ccccc2)CC1,"inconclusive [inhibitor, single point]",
COc1cc(C(N)=O)cc(Br)c1OCc1ccccc1,,inconclusive: -32% [inhibitor]
COc1cc(C(=O)N(Cc2cc3ccc(C)cc3nc2N(C)C)C2CC2)cc(OC)c1OC,,inactive: 15.4% [at 9.04 µM]
CC1=CC(C)(C)n2c(O)c(C3=NC(=S)NC3=O)c3cc(OC(=O)c4cccc5ccccc45)cc1c32,"inconclusive [inhibitor, single point]",
COc1cccc([C@@H]2Oc3ccc(OC)cc3C(=O)[C@H]2OC(=O)Nc2cc(OC)c(OC)c(OC)c2)c1,"inconclusive [inhibitor, single point]",
CCn1c(=N)c(C(=O)NCCCOC)cc2c(=O)n3cccc(C)c3nc21,"inconclusive [inhibitor, single point]",
CC(C)(CNC(=O)c1cc([N+](=O)[O-])ccc1N1CCC(Cc2ccccc2)CC1)N1CCOCC1,"inconclusive [inhibitor, single point]",
COc1ccc(-c2ccnc3c2c(=O)n(C)c(=O)n3C)cc1OC,"inconclusive [inhibitor, single point]",
CC(=O)Nc1ccccc1OC(C)C(=O)N1CC(C)CC(C)C1 (configuration not stated),"inconclusive [inhibitor, single point]",
CCCCSc1nnc(-c2cc3c(C(F)(F)F)nn(C)c3s2)n1C,"inconclusive [inhibitor, single point]",
Cc1ccc(C)c(N2CCN(CCCNc3ncnc4onc(-c5ccc(Cl)cc5)c34)CC2)c1,"inconclusive [inhibitor, single point]",
O=C(Cn1nnc(-c2ccccc2)n1)N=Nc1c(O)[nH]c2ccccc12,inactive,
CC(C)(C)c1ccc(/C=C/C(=O)NCCCN2CCOCC2)cc1,"inconclusive [inhibitor, single point]",

Compound,Potency,"activity change, negative = growth inhibition"
CS(=O)(=O)c1nc(-c2ccccc2)cc(-c2ccccc2)c1C#N,active: 1.46 µM,
CCN(C(=O)C(NS(=O)(=O)c1cccc2nsnc12)c1ccccc1)c1ccccc1 (configuration not stated),"inconclusive [inhibitor, partial curve]",
O=C(O)c1cc2c(cc1Br)OCCCO2,inactive,
Cc1onc(-c2ccccc2)c1C(=O)N/N=C/c1cc(Br)c(O)c(Br)c1,"inconclusive [inhibitor, single point]",
N#Cc1ccc(/C=C2\C=Cc3ccccc32)cc1,inactive,
Fc1ccc(NC(=S)N2CCOCC2)c(F)c1,inactive,
CC(=O)Nc1cccc(-c2ccnc3c2CC(C)(C(=O)NCc2ccncc2)O3)c1 (configuration not stated),active: 20.6 µM,
CCCN(CC(=O)Nc1ccccc1OC)C(=O)CSc1nc(C)cc(C)n1,"inconclusive [inhibitor, single point]",
CN(C)c1nc(-c2ccccc2)nnc1C(F)(F)F,inactive,
COc1cccc(NC(=O)CN(C)C(=O)c2ccc(COc3ccccc3)cc2)c1,"inconclusive [inhibitor, single point]",
O=C(NCC1CCCO1)c1ccccc1S(=O)(=O)c1ccc([N+](=O)[O-])cc1 (configuration not stated),inactive,
CN(c1ccc(C(=O)N2CCCCCC2)cc1)S(=O)(=O)c1ccccc1,active: 13 µM,
NS(=O)(=O)c1ccc(CCNC(=O)c2ccc([N+](=O)[O-])s2)cc1,active: 16.4 µM,
O=C(CSc1nnc(CCCN2C(=O)c3cccc4cccc(c34)C2=O)n1-c1ccccc1)N1CCN(CCO)CC1,"inconclusive [inhibitor, single point]",
Cc1ccc(C(=O)N2c3nc(-c4ccco4)nn3C3(CCCCC3)[C@@H]3CCCC[C@@H]32)cc1,active: 16.4 µM,
CCOC(=O)[C@@H]1[C@H]2COc3ccccc3[C@H]2N2C(=O)N(c3ccc(Cl)cc3)C(=O)[C@@]12C,"inconclusive [inhibitor, single point]",
Cc1ccc(NC(=O)C2(S(=O)(=O)c3ccc(Cl)cc3)CC2)cc1,inactive,
Cc1cc2oc(=O)cc(CN3CCN(S(=O)(=O)c4cccs4)CC3)c2cc1C(C)C,active: 23.1 µM,
Cc1cc(C)c(NC(=O)CN2C(=O)c3cccnc3Oc3ccc(Cl)cc32)c(C)c1,"inconclusive [inhibitor, single point]",
COc1cccc(CNc2ccc(S(=O)(=O)N3CCCC3)cn2)c1,"inconclusive [inhibitor, single point]",
CN(C)c1nnnn1Cc1ccc(Cl)cc1Cl,"inconclusive [inhibitor, partial curve, poor fit]",
